# In PMC4336329 (PLoS ONE, 2015):
# Screen size: about 310,000 compounds; about 14,000 (4.5%) showed an effect of 50% or more. Effects have a minus sign here. The list shows a part of the results.
# Molecular target: human ether-à-go-go-related gene (hERG) potassium channel (human, UniProt Q12809)
# Assay: primary screen, population patch clamp on CHO cells stably expressing hERG
# 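Also: peak tail current of the secondary pulse compared with the same well before compound.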
# Sequence of human ether-à-go-go-related gene (hERG) potassium channel (Q12809 whole entry, looked up): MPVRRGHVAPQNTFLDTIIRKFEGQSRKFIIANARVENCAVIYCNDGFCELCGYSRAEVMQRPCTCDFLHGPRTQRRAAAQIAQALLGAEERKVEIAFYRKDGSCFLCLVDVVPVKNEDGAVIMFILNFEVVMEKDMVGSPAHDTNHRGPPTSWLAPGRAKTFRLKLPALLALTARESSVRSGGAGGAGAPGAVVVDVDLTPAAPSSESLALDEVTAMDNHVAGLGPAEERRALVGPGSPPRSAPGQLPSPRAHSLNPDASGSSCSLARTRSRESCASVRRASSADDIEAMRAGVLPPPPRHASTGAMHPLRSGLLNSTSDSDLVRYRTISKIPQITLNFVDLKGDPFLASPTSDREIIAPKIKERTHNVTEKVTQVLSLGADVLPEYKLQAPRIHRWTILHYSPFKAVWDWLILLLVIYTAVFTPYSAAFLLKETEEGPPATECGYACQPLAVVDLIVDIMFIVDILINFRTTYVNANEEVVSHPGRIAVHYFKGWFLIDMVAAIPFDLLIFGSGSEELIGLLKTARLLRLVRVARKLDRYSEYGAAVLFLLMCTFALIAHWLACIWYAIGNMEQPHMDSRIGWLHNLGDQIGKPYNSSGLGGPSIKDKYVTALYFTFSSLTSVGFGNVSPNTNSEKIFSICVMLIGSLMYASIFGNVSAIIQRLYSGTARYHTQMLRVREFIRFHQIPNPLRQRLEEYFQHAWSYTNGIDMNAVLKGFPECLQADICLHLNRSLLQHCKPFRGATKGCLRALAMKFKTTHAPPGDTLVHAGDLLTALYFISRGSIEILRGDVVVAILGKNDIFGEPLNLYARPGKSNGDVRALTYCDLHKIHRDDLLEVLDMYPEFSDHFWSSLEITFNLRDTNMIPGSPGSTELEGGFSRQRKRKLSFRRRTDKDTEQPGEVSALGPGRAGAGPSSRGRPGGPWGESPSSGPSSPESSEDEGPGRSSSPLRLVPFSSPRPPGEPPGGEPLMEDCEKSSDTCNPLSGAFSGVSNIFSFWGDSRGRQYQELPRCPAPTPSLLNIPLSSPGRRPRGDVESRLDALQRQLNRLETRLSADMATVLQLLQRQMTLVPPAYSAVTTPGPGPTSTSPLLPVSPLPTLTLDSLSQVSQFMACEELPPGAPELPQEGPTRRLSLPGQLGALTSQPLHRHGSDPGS
row,Structure (SMILES),"hERG current change (%, negative = inhibition) at 10uM [%]"
1,C[n+]1ccn(CC(=O)c2ccc(Br)cc2)c1.[Br-],-5.34
2,CCC(CC)C1C(C#N)=C(N)SC(N)=C1C#N,-4.08
3,COc1cc(CNCc2cccnc2)ccc1OCC(=O)NC1CCCCC1.Cl,17.7
4,COc1ccc(/C=N/n2c(N)nc3ccccc32)cc1OC,-1.46
5,CCc1ccc(C(=O)COC(=O)CNC(=O)c2ccco2)cc1,-18.2
6,COc1cccc(C(=O)Oc2cc(-c3ccccc3)no2)c1,9.95
7,O=C(Cc1ccc(Cl)cc1)Nc1cccc2ncccc12,20.6
8,CCC1(C(=O)O)NC(c2cc(OC)ccc2O)C2C(=O)N(Cc3ccccc3)C(=O)C21 (centres unmarked),7.42
9,COc1ccc(CC(=O)N2CCOCC2)cc1,16.9
10,CCc1ccccc1N(C(=O)CCC(=O)Nc1cc(C)on1)C(C(=O)NC1CCCC1)c1ccco1 (centres unmarked),-0.891
11,COc1cc(SC)ccc1C(=O)NNC(=O)c1cc(C)oc1C,8.47
12,CCOCC(=O)Nc1ncc(S(=O)(=O)c2ccc([N+](=O)[O-])cc2)s1,-40.5
13,COc1ccc(C(=O)CC2SC(N)=NC2=O)cc1 (centres unmarked),18.9
14,Cc1ccc(OCCN2CCN(C(=O)CCC(=O)Nc3nnc(CC(C)C)s3)CC2)cc1,-43.5
15,O=C1NC(=O)N(c2cccc(F)c2)C(=O)/C1=C/c1ccc(N2CCOCC2)cc1,9.9
16,CCN1C(=O)c2cccc3c(N)ccc1c23,-8.39
17,CCC(C)(C)n1nnnc1C(c1cccs1)N1CCc2ccccc21 (centres unmarked),-5.76
18,CC(C)C1Oc2cc3oc(=O)ccc3cc2C1=O (centres unmarked),-20.4
19,CC(C)(C)n1ncc2c(=O)n(CC(=O)N3CCCCCC3)cnc21,6.45
20,Cc1ccnc(NC(=O)CNC(=O)c2ccccc2)c1,-6.48
21,COc1ccc(C(=O)NCc2ncccc2C)cc1OC1CCN(C(C)=O)CC1,9.32
22,COc1ccc(OC)c2[nH]c(=O)c(CCNC(=O)c3cccs3)cc12,-14.8
23,CCOc1ccc(C(=O)OC2CCN(C)CC2)cc1.Cl,-21.6
24,Cn1c(=O)cc(OCCCC(=O)Nc2cccnc2)c2ccccc21,0.169
25,O=C(NCc1ccccc1)c1cc2nc(C3CC3)cc(C(F)(F)F)n2n1,-23.1
26,COCC(=O)NCCNc1nc2ccc(C)cc2cc1C,-24.9
